The campaign covered roughly 350,000 compounds. About 31,000 (8.9%) were called active. The shares of active, inactive and inconclusive entries below differ from those in the screen. Calls come from the whole dose curve; as a rule, active = well fitted inhibition curve with a large enough effect; inconclusive = small, poorly fitted or top-dose-only effect; inactive = no such curve, though single readings can be large or run the other way. Where the call is inconclusive, the potency comes from a doubtful curve fit.
Target: Histone-lysine N-methyltransferase EHMT2 (Homo sapiens) (UniProt Q96KQ7)
Chain of UniProt Q96KQ7 (Q96KQ7 whole entry, looked up): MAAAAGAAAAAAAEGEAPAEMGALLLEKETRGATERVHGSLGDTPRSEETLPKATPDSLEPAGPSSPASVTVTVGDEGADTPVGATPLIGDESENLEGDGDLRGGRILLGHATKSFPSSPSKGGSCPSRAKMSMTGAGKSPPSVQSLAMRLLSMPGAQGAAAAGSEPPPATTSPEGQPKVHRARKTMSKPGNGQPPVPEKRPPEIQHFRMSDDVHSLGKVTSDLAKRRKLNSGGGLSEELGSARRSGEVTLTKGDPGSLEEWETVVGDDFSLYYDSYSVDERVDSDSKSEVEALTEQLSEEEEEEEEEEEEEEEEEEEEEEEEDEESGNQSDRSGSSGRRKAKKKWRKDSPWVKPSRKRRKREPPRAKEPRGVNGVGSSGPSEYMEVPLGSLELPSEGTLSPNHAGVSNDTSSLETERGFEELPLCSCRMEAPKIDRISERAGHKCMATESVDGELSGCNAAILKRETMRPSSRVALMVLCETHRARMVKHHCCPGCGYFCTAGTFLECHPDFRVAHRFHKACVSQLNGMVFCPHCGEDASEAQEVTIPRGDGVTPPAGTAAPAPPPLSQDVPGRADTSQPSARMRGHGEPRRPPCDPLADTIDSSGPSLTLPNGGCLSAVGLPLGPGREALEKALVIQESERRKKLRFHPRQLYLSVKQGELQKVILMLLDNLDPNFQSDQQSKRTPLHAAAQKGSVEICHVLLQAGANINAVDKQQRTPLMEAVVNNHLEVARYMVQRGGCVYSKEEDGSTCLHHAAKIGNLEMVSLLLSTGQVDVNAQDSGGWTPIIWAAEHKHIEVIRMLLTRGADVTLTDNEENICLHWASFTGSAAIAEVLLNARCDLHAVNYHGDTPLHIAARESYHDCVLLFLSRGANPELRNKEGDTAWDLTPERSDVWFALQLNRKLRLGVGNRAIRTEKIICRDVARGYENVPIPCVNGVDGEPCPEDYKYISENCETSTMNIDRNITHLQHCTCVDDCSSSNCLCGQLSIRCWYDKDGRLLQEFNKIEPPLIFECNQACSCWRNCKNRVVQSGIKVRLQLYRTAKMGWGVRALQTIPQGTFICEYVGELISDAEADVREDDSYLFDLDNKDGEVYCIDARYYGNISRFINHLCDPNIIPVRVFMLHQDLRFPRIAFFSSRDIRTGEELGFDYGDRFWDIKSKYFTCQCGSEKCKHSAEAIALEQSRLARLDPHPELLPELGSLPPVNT
Assay: qHTS Assay for Inhibitors of Histone Lysine Methyltransferase G9a; note: nearly all actives have a fitted effect of over 75% in size
Conditions: G9a H3K9 monomethylation, AlphaScreen, 2 h; activity, negative = inhibition: at 59 µM (top of the series) unless noted
How it was run: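 Methyltransferase reactions run at room temperature for 2 h (20 nM enzyme, 500 nM biotin-H3K9 peptide, 20 uM SAM) after a 15 min compound preincubation; product detected by AlphaScreen beads and anti-H3K9me1 antibody.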
% is set by controls: 0 for no effect and ±100 for the full control effect; potency is the fitted concentration of half-maximal effect; tags give direction and shape of the fitted curve.

| Compound | Potency | activity, negative = inhibition |
| --- | --- | --- |
| COc1ccccc1N1C(=O)C2C(C(=O)c3ccccc3)=NN(c3ccc(Br)cc3)C2C1=O (stereo unspecified) | inconclusive: 70.8 µM [inhibitor, partial curve] |  |
| COc1ccc(NS(=O)(=O)c2cc3c4c(c2)CC(=O)N4CCC3)cc1Cl | inconclusive: 2.82 µM [inhibitor, partial curve, poor fit] |  |
| O=C(NC1(C(F)(F)F)N=C(c2ccccc2)N(C2CCCCC2)C1=O)c1ccccc1F (stereo unspecified) |  | inactive: -8.07% |
| O=C(NCc1n[nH]c(=S)n1-c1ccc(F)cc1)c1ccc(S(=O)(=O)N2CCCC2)cc1 | inconclusive: 2 µM [inhibitor, partial curve, poor fit] |  |
| Cc1ccc(C2=NN(C(=O)CCC(=O)O)C(c3cn(-c4ccccc4)nc3-c3ccc(C)cc3)C2)cc1 (stereo unspecified) | inconclusive: 89.1 µM [inhibitor, single point] |  |
| CCOc1ccc(C(=O)C(CCC(CN(C)C)C(=O)c2ccc(OCC)cc2)CN(C)C)cc1 (stereo unspecified) | inconclusive: 15.8 µM [inhibitor, single point] |  |
| CC(=O)Nc1ccc(-c2nnc3n(CC(C)C)c(=O)c4ccccc4n23)cc1 | inconclusive: 3.98 µM [inhibitor, partial curve, poor fit] |  |
| COc1ccc(CNC(=O)[C@H](C)NC(=O)C2CCN(S(=O)(=O)c3ccccc3)CC2)cc1 |  | inactive: 50.8% [at 102 µM] |
| O=C1CCCN2N=C(SCC(=O)Nc3nccs3)SC2=N1 | inconclusive: 50.1 µM [inhibitor, partial curve, poor fit] |  |
| CCC(C(=O)OCC(=O)N1CCN(c2ccc(OC)cc2)CC1)c1ccccc1 (stereo unspecified) | inconclusive: 7.08 µM [inhibitor, single point] |  |
| Cc1ccc(-c2cc(-c3coc4ccccc4c3=O)c3c(n2)-c2cc(Cl)ccc2OC3)cc1 |  | inactive: -32.2% |
| COc1ccc(S(=O)(=O)N2CCc3ccccc32)cc1C(=O)NCCc1ccccn1 | inconclusive: 22.4 µM [inhibitor, partial curve, poor fit] |  |
| COc1ccc2ccccc2c1/C=N/N1C(=O)CSC1=S | inconclusive: 35.5 µM [inhibitor, partial curve, poor fit] |  |
| O=C(c1cc2ccccc2o1)c1nc2c(n1O)CCCCC2 | inconclusive: 3.16 µM [inhibitor, single point] |  |
| COc1ccc(-c2noc(CSc3nnc(-c4ccncc4)n3-c3cccc(C)c3)n2)cc1OC |  | inactive: -6.78% |
| O=[N+]([O-])c1ccccc1OCCN1CCCC1 | inconclusive: 89.1 µM [inhibitor, single point] |  |
| Cc1ccc(-c2ccc(/C=C3/NC(=O)NC3=O)o2)cc1[N+](=O)[O-] | inconclusive: 28.2 µM [inhibitor, single point] |  |
| Cc1cc(C)nc(CCNC(=O)CC2C(=O)NCCN2Cc2ccccc2)n1 (stereo unspecified) | inconclusive: 63.1 µM [inhibitor, single point] |  |
| COCc1cc(=O)[nH]c(SCCS(=O)(=O)c2ccc(Cl)cc2Cl)n1 | inconclusive: 50.1 µM [inhibitor, partial curve] |  |
| CCc1ccc(NC(=S)N(CCCN2CCOCC2)Cc2ccccn2)cc1 | inconclusive: 39.8 µM [inhibitor, single point] |  |
| COc1cccc(C(=O)Oc2cc3c4c(c2)C(C)=CC(C)(C)N4C(=O)C3=O)c1 | active: 8.91 µM |  |

| Compound | Potency | activity, negative = inhibition |
| --- | --- | --- |
| CCCCn1c(N)c(N(CC(C)C)C(=O)c2cc(-c3ccc(OC)c(OC)c3)nc3ccccc23)c(=O)[nH]c1=O | inconclusive: 56.2 µM [inhibitor, partial curve, poor fit] |  |
| COC(=O)c1cc(-c2ccccc2)n(CC(=O)O)c1C | inconclusive: 10 µM [inhibitor, partial curve, poor fit] |  |
| Cn1c(-c2ccccc2)cnc1NCc1cccc([N+](=O)[O-])c1 | active: 10 µM |  |
| COc1cc(-c2nnc(SCC(=O)N(C)C3CCCCC3)o2)cc(OC)c1OC |  | inactive: -5.59% |
| Cc1c(C(=O)N2CCC(C(N)=O)CC2)oc2ccc(Br)cc12 |  | inactive: -10.8% [at 102 µM] |
| COc1cc2c(cc1NC(=O)C(C)Oc1ccc(Cl)cc1Cl)oc1ccccc12 (stereo unspecified) | inconclusive: 7.08 µM [inhibitor, single point] |  |
| CCc1ccc(OCC2c3cc(OC)c(OC)cc3CCN2C(=O)Cc2ccc(OC)c(OC)c2)cc1 (stereo unspecified) |  | inactive: -28.8% |
| CC1CCN(C(C(=O)O)c2ccccc2)CC1 (stereo unspecified) | inconclusive: 0.562 µM [inhibitor, full curve] |  |
| CC1(O)c2ccccc2C(=O)N1Cc1ccccc1 (stereo unspecified) |  | inconclusive: -52.2% [inhibitor] [at 2.33 µM] |
| O=c1cc(-c2ccc(O)c(O)c2)oc2c1ccc1ccccc12 | inconclusive: 3.16 µM [inhibitor, single point] |  |
| COC(=O)c1sc2cc([N+](=O)[O-])cc(SCC(C)C)c2c1N | active: 39.8 µM |  |
| Cc1cccc(N2CCN(C(=O)c3cn(C)c(=O)c4c3c3ccccc3n4C)CC2)c1C | active: 50.1 µM |  |
| COc1ccc(N(C(=O)c2ccccc2C)S(=O)(=O)c2ccc3c(c2)n(C)c(=O)n3C)cc1 |  | inactive: 6.68% |
| O=c1[nH]c2cc(C(F)(F)F)ccc2n1-c1cc(C(F)(F)F)ccc1O | inconclusive: 50.1 µM [inhibitor, partial curve] |  |
| CC(=O)Nc1ccc(-c2csc(NC=C3C(=O)OC(C)(C)OC3=O)n2)cc1 | inconclusive: 35.5 µM [inhibitor, partial curve] |  |
| O=C(/C=C/c1ccco1)N(Cc1cccc(Cl)c1)C1CCS(=O)(=O)C1 (stereo unspecified) | inconclusive: 50.1 µM [inhibitor, partial curve] |  |
| Cc1ccc(S(=O)(=O)NC(CC(=O)O)c2ccco2)cc1 (stereo unspecified) | inconclusive: 89.1 µM [inhibitor, partial curve, poor fit] |  |
| Cc1ccc(CN2CCN(/N=C/c3ccc(C)s3)CC2)c(C)c1 | inconclusive: 25.1 µM [inhibitor, single point] |  |
| Cc1cc(N2CCN(C)CC2)nc2ccc(NC(=O)Nc3ccccc3Cl)cc12 | inconclusive: 31.6 µM [inhibitor, partial curve, poor fit] |  |
| CCN(CC)S(=O)(=O)c1ccc(OC)c(NC(=O)c2cc3c(=O)n4ccccc4nc3s2)c1 | active: 39.8 µM |  |
